Measurements published in PMC3057972, “BAG3 Directly Interacts with Mutated alphaB-Crystallin to Suppress Its Aggregation and Toxicity” (PLoS ONE, 2011).
No constants are given. Whether binding was seen depends on the method and setting. For some assays here: In cells and extracts the contact can be indirect. Some entries that bind do so weakly or less than the wild type. For some assays here: Sequences can lack the tags named with a protein.

Protein sequences, listed by entry. Tags and fused reporters are not part of them. Lines headed by an entry give the natural chain unless they say otherwise; changes in a name come on top. Chains listed by the source or under a name are the forms on record and can include a tag or linker.
UniProt O95817: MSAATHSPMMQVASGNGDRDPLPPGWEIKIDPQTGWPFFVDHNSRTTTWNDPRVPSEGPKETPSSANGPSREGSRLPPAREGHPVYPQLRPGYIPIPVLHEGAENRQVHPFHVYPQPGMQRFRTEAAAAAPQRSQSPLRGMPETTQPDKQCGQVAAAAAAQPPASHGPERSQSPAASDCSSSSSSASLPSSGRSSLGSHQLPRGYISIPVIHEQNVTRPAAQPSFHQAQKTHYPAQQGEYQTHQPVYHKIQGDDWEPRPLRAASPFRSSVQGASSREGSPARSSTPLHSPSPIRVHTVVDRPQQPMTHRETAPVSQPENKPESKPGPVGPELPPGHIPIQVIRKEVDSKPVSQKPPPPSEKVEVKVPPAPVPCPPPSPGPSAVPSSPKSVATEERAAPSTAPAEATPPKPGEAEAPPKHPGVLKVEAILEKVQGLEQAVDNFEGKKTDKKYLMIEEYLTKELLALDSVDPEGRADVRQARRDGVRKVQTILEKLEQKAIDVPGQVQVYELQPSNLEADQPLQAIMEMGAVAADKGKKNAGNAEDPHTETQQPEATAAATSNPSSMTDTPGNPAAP
His-BAG3ΔM2 (deletion of aa 87–101 and aa 200–213) (O95817, form named): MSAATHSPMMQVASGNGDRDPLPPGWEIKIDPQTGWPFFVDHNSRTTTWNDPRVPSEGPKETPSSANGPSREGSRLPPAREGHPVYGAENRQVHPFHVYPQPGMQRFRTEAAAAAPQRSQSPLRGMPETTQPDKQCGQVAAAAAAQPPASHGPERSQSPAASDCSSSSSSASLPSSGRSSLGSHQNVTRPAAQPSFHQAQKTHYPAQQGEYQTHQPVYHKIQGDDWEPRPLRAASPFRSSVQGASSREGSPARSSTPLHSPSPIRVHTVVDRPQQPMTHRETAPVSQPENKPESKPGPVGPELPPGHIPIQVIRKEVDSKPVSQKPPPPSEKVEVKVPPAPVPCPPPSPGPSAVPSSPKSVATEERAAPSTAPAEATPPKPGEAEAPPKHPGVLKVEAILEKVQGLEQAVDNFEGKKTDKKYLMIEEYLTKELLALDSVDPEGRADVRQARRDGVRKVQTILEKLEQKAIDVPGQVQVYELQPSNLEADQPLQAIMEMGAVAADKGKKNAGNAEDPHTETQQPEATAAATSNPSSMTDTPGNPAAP
UniProt P63018: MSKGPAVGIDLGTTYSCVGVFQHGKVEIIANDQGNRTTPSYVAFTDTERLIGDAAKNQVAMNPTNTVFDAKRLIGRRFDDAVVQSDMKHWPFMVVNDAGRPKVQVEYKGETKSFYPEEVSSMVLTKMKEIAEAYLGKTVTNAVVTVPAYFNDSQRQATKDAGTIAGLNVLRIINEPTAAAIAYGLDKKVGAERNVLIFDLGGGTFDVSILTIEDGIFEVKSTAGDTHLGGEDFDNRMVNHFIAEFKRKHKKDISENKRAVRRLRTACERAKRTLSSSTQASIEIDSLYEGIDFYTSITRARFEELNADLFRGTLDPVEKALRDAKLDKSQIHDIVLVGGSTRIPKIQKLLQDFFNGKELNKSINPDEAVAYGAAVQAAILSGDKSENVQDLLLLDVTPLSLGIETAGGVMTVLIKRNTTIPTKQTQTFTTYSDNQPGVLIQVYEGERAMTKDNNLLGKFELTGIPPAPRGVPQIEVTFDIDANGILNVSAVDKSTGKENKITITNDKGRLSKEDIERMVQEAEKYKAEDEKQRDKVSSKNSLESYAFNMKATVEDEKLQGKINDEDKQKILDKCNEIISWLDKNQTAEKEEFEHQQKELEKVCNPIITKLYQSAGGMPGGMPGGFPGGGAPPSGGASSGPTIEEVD

B1: endogenous αB-crystallin of rat neonatal cardiomyocytes (protein, UniProt P23928 1-175)
chain: MDIAIHHPWIRRPFFPFHSPSRLFDQFFGEHLLESDLFSTATSLSPFYLRPPSFLRAPSWIDTGLSEMRMEKDRFSVNLDVKHFSPEELKVKVLGDVIEVHGKHEERQDEHGFISREFHRKYRIPADVDPLTITSSLSSDGVLTVNGPRKQASGPERTIPITREEKPAVTAAPKK
B2: αB-crystallin wild type (non-tagged, expressed in HEK293 cells) (protein, UniProt P02511 1-175)
chain: MDIAIHHPWIRRPFFPFHSPSRLFDQFFGEHLLESDLFPTSTSLSPFYLRPPSFLRAPSWFDTGLSEMRLEKDRFSVNLDVKHFSPEELKVKVLGDVIEVHGKHEERQDEHGFISREFHRKYRIPADVDPLTITSSLSSDGVLTVNGPRKQVSGPERTIPITREEKPAVTAAPKK
B3: αB-crystallin R120G (non-tagged, expressed in HEK293 cells) (protein, UniProt P02511 1-175)
chain: MDIAIHHPWIRRPFFPFHSPSRLFDQFFGEHLLESDLFPTSTSLSPFYLRPPSFLRAPSWFDTGLSEMRLEKDRFSVNLDVKHFSPEELKVKVLGDVIEVHGKHEERQDEHGFISREFHGKYRIPADVDPLTITSSLSSDGVLTVNGPRKQVSGPERTIPITREEKPAVTAAPKK
B4: purified αB-crystallin wild type (from E. coli) (natural protein, human, UniProt P02511 1-175, looked up)
chain: MDIAIHHPWIRRPFFPFHSPSRLFDQFFGEHLLESDLFPTSTSLSPFYLRPPSFLRAPSWFDTGLSEMRLEKDRFSVNLDVKHFSPEELKVKVLGDVIEVHGKHEERQDEHGFISREFHRKYRIPADVDPLTITSSLSSDGVLTVNGPRKQVSGPERTIPITREEKPAVTAAPKK
notes: αB-crystallin, human, wild type; probably made as a GST fusion from pGEX-6P-1 with the GST removed (it is pulled down by GST-BAG3 on GSH beads); also called WT; source: E. coli, purified

Columns and labels:
[1] = target: Flag-tagged BAG3 wild type (expressed in HEK293 cells) (human) (UniProt O95817); assay: co-IP; HEK293 cells transiently transfected with Flag-tagged BAG3 or mutants and αB-crystallin; lysed 48 h later in immunoprecipitation buffer (20 mM Tris pH 7.5, 150 mM NaCl, 1% TritonX-100); immunoprecipitated with anti-Flag antibody; immunoblot
[2] = target: Flag-tagged BAG3 (expressed in rat neonatal cardiomyocytes using adenovirus) (human) (UniProt O95817); assay: co-IP; Flag-tagged BAG3 expressed by adenovirus in rat neonatal cardiomyocytes; cell extract immunoprecipitated with anti-Flag antibody; endogenous proteins detected by immunoblot
[3] = target: His-BAG3ΔM2 (deletion of aa 87–101 and aa 200–213) (human) (UniProt O95817); assay: co-IP; HEK293 cells expressing His-tagged BAG3 or BAG3ΔM2 with αB-crystallin; cell extract precipitated with anti-His antibody; immunoblot with anti-αB-crystallin antibody
[4] = target: His-BAG3 wild type (expressed in HEK293 cells) (human) (UniProt O95817); assay: as above
[5] = target: T1, GST-BAG3 (human, UniProt O95817 1-575); assay: condition: only with both peptides (aa 87–101 and aa 200–213 of BAG3) present; pull-down; competition: purified GST-BAG3 incubated with purified αB-crystallin in the presence or absence of peptides aa 87–101 or 200–213 of BAG3; precipitated with GSH beads; immunoblot with anti-αB-crystallin …; both purified
T1 construct: BAG3, human, cDNA subcloned into pGEX-6P-1; also called GST-fused BAG3; GST protein fused to BAG3; source: E. coli BL21, purified (glutathione-Sepharose beads)

| Molecule | binding [1] | binding [2] | also measured |
| --- | --- | --- | --- |
| endogenous Hsc70 of HEK293 cells (from UniProt P11142-1 1-646) | binds | – | – |
| endogenous Hsc70 of rat neonatal cardiomyocytes (from UniProt P63018 1-646) | – | binds | – |
| B1 | – | binds | – |
| B2 | binds | – | binding [3]: no binding; binding [4]: binds |
| B3 | binds | – | – |
| B4 | – | – | binding [5]: no binding |
